Measurements from paper PMC6443781.
No constants are given. Whether binding was seen depends on the method and setting. For some of these results: Binding seen in cells or lysates may run through a third protein. Some results given as binding are weak or reduced against the parent protein; the word gives no strength.

By UniProt entry, the sequences of proteins in these tests, tags left out. Where a name states a change or a piece, a line headed by the entry shows the natural chain unless it says otherwise. Chains listed by the source or under a name are the forms on record and can include a tag or linker. Residues count along the entry.
UniProt O60566: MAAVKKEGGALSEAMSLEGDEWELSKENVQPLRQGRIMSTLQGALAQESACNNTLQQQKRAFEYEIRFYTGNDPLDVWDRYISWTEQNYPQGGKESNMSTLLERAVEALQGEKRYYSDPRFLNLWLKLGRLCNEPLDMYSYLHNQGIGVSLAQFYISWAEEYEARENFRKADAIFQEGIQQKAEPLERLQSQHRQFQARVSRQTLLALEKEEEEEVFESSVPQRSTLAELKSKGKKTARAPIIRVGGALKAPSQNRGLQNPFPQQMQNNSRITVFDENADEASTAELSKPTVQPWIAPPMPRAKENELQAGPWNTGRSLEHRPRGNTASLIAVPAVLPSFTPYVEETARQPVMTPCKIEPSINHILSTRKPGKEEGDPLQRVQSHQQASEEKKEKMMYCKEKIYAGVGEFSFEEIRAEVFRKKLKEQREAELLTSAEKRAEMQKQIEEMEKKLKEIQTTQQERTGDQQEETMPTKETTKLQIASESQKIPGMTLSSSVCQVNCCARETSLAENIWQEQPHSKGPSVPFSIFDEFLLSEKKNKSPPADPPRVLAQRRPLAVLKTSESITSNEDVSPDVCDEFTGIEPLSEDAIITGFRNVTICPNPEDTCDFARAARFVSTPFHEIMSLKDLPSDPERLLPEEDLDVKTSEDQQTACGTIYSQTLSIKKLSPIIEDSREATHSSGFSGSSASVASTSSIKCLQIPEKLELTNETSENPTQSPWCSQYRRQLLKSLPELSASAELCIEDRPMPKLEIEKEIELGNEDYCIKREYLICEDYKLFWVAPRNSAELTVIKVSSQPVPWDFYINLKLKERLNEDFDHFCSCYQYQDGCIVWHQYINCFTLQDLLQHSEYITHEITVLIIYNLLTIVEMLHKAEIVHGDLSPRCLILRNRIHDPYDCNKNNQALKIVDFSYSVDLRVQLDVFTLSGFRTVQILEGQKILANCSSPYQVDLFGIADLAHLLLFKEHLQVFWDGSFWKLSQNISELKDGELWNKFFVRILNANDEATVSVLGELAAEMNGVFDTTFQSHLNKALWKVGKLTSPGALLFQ
UniProt Q96CW1: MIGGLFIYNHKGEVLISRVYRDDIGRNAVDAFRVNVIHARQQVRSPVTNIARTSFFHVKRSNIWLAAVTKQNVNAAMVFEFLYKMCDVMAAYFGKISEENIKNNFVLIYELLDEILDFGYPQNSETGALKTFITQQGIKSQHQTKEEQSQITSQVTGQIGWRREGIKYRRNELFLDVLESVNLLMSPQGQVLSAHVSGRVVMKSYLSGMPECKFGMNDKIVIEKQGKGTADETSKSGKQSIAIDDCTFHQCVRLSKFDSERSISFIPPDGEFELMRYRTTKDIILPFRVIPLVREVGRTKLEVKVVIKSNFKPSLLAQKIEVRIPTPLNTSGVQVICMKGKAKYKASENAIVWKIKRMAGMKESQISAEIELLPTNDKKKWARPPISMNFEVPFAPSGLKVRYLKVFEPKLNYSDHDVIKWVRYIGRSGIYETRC
UniProt P63010: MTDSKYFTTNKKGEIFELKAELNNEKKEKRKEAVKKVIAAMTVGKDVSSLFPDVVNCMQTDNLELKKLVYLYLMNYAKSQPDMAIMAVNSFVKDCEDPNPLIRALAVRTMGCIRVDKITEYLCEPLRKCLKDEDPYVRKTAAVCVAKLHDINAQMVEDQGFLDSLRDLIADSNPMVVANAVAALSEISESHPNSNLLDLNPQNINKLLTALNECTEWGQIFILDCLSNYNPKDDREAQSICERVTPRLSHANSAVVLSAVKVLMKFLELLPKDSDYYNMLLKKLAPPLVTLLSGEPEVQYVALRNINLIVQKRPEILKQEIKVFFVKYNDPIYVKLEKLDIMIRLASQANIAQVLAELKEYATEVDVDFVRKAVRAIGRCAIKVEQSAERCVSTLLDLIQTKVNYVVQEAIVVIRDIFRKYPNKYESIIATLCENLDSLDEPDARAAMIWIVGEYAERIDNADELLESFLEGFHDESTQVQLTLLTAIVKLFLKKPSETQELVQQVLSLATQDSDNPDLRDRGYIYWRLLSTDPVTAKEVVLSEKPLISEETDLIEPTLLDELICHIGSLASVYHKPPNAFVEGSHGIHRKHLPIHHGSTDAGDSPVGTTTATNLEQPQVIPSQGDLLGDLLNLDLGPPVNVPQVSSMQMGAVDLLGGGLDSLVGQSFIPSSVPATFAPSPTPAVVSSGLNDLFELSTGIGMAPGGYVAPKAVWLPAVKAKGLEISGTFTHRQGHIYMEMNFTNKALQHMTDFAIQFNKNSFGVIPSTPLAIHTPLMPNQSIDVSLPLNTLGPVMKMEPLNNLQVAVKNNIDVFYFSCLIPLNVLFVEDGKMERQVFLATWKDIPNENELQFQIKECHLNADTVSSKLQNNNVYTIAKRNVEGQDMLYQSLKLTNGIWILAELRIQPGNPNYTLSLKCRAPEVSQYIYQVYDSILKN
UniProt P35568: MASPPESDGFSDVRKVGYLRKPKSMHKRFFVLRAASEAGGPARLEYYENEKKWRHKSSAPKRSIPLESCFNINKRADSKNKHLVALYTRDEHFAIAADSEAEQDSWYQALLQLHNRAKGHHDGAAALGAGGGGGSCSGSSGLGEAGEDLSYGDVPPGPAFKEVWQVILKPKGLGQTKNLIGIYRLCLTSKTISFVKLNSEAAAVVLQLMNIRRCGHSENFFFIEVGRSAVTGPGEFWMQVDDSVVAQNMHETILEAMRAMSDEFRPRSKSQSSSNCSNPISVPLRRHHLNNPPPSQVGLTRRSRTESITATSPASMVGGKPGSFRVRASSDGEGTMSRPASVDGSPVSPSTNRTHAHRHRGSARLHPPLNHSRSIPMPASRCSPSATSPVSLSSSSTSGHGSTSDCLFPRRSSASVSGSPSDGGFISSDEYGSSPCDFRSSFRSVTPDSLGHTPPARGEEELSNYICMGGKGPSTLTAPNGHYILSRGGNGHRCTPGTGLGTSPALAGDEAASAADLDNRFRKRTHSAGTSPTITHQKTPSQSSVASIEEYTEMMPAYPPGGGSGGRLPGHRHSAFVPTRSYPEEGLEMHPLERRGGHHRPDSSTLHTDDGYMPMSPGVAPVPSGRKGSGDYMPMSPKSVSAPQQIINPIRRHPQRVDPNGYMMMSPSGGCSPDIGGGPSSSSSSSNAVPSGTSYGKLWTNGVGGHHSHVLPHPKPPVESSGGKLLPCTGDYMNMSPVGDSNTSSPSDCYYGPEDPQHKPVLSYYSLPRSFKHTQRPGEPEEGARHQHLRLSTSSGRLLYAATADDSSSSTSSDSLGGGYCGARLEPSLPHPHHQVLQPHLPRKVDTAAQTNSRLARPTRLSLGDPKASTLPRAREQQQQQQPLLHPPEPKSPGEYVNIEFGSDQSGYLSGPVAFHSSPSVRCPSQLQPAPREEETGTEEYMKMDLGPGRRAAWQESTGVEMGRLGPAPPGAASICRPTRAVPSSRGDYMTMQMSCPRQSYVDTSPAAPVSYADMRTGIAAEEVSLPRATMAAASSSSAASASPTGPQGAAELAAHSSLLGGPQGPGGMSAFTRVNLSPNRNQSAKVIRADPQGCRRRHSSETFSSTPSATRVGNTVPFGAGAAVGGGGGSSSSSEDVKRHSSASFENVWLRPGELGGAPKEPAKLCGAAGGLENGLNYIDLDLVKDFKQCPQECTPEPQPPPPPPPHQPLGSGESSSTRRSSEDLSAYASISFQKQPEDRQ
IVT IRS1 (residues 449–864) 3YA (Y612A/Y632A/Y662A) (P35568, form named): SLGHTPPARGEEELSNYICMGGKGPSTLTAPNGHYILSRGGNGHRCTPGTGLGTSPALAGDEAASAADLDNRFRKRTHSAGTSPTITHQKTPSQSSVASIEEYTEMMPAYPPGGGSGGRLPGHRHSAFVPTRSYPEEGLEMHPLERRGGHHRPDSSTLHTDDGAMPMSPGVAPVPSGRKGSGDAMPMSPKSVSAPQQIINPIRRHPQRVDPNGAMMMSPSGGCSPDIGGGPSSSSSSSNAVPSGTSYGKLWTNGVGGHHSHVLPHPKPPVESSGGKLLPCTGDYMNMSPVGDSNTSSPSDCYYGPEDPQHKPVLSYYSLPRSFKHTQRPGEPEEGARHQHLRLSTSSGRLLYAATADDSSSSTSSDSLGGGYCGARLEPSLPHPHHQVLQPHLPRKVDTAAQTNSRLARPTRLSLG

T1: mutant IRS1 peptide with Y612 and M615 replaced by alanine (AMPAS) (human)
T1 sequence (peptide): CHTDDGAMPASPGVA

B1: IVT IRS2 fragment (residues 520–888) (domain or fragment, UniProt P81122 520-888)
chain: SIAETPPARDGSGGELYGYMSMDRPLSHCGRPYRRVSGDGAQDLDRGLRKRTYSLTTPARQRQVPQPSSASLDEYTLMRATFSGSSGRLCPSFPASSPKVAYNPYPEDYGDIEIGSHKSSSSNLGADDGYMPMTPGAALRSGGPNSCKSDDYMPMSPTSVSAPKQILQPRLAAALPPSGAAVPAPPSGVGRTFPVNGGGYKASSPAESSPEDSGYMRMWCGSKLSMENPDPKLLPNGDYLNMSPSEAGTAGTPPDFSAALRGGSEGLKGIPGHCYSSLPRSYKAPCSCSGDNDQYVLMSSPVGRILEEERLEPQATPGAGTFGAAGGSHTQPHHSAVPSSMRPSAIGGRPEGFLGQRCRAVRPTRLSLE

Key:
[1] = target: T1, mutant IRS1 peptide with Y612 and M615 replaced by alanine (AMPAS) (human); assay: pull-down; IRS1 peptides coupled to SulfoLink beads; 10 µl beads with 1 µg purified AP2M1 (160–435), Buffer A (50 mM Tris pH 7.5, 0.2 M NaCl, 0.1% NP-40), 4 °C overnight; SDS-PAGE, Coomassie; both purified
[2] = target: Myc-BUBR1 full length (WT) (human) (UniProt O60566); assay: co-IP; 293FT cells transfected with GFP-AP2B1 and Myc-BUBR1 plasmids; anti-Myc-BUBR1 IP from total cell lysate, blotted with anti-Myc and anti-AP2B1 or anti-GFP
[3] = target: GST-AP2M1 (full-length human AP2M1) (human) (UniProt Q96CW1); assay: pull-down; GST-AP2M1 on glutathione beads incubated with IVT IRS1 or IRS2 products diluted in cell lysis buffer, 4 °C, 2 h; Coomassie or immunoblot; only the target purified

| Molecule | binding [3] | other results |
| --- | --- | --- |
| AP2M1 (residues 160–435) (from UniProt Q96CW1 160-435) (domain or fragment) | – | binding [1]: no binding (tested: 1 μg AP2M1 on 10 µl peptide beads) |
| GFP-AP2B1 full length (FL) (from UniProt P63010 1-937) | – | binding [2]: binds |
| IVT IRS1 (residues 449–864) 3YA (Y612A/Y632A/Y662A) (from UniProt P35568 449-864) (domain or fragment) | binds | – |
| IVT Myc-IRS1 YXXΦ-containing central region (residues 449–679) (from UniProt P35568 449-679) (domain or fragment) | binds | – |
| In vitro-translated IRS1 (residues 449–864) (from UniProt P35568 449-864) (domain or fragment) | binds | – |
| in vitro-translated (IVT) Myc-IRS1 full-length (from UniProt P35568 1-1242) | binds | – |
| B1 | binds | – |
